Results: US8008346B2, “Chemotherapeutic agents for inhibition of protein translation” (The Royal University for the Advancement of Learning/McGill …, priority 2006, dated 2011)

System: cap-dependent translation initiation
Experiment: Cap-dependent translation of FF/HCV/Ren mRNA in Krebs-2 extracts
Conditions: Krebs-2 extracts programmed with FF/HCV/Ren mRNA
Description: FIG. 5. Hippuristanol inhibits cap-dependent translation initiation. A. Schematic diagram of FF/HCV/Ren mRNA. B. Titration of hippuristanol in Krebs-2 extracts programmed with FF/HCV/Ren mRNA. SDS-PAGE analysis of in vitro translations performed in Krebs-2 extracts in the presence of ^35S-methionine. The addition of hippuristanol and vehicle to the translation reaction is shown above the panel. C. Graphical representation of the effects of hippuristanol on the translation of FF/HCV/Ren mRNA in Krebs-2 extracts. The results shown are the average of 3 experiments. D. Effect of hippuristanol on cap-dependent and HCV IRES-mediated translation in vivo. Following transfection with pcDNA/Ren/HCV/FF, 293 cells were incubated with the indicated concentrations of hippuristanol for 10 hrs. Luciferase activity was measured from cell extracts and is expressed relative to vehicle (DMSO) treated cells. […]
FIG. 12 Structure-Activity Relationship of hippuristanol congeners. A. The chemical structure of the hippuristanol congeners is presented along with the IC50 determined for inhibition of cap-dependent translation in Krebs-2 extracts programmed with FF/HCV/Ren mRNA. […]
In vitro translations were performed using Krebs-2 extracts at a final mRNA and K^+ concentration of 5 μg/ml and 100 mM, respectively (33). Firefly and renilla luciferase activities (RLU) were measured on a Berthold Lumat LB 9507 luminometer. […]

SMILES: C[C@H]1C[C@@]2(O[C@H]3C[C@H]4[C@@H]5CC[C@H]6C[C@H](O)CC[C@]6(C)[C@H]5[C@@H](O)C[C@]4(C)[C@H]3[C@@]2(C)O)OC1(C)C [Hippuristanol, hippuristanol]
- cap-dependent translation initiation: inhibits
